± gives the standard deviation of the averaged measurements. Restriction of a single-cycle SIVsab GFP reporter by TRIM5α v1-loop variants in CRFK cells. Human variants: read share among cells still uninfected after two challenges over input, higher = gained restriction. Rhesus variants: share among infected cells over input, higher = lost restriction. Reporter dose not given per row. No active / inactive call per row; the paper calls a change when both replicates lie above its controls (mean + 2 SD of stop or wild-type variants, or the top frameshift score). Residues outside the varied loop are taken from Swiss-Prot. The paper reads the human single-substitution scores as noise; they and the rhesus combinations repeat poorly (rank correlation 0.3 to 0.4), indel scores repeat only for the top variants, rhesus substitutions well (0.9).

In this data set the test system is SIVsab (simian immunodeficiency virus of sabaeus monkeys), single-cycle GFP reporter, in CRFK cells. The experiment in a line: enrichment among uninfected cells over input (fold); higher = stronger restriction. As to conditions: library: insertions and deletions. As to the method: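 Pools of CRFK cells expressing variants of the TRIM5α v1 loop were challenged with the single-cycle reporter, sorted by GFP and sequenced; mean of two replicates.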
“MASGILVNVKEEVTCPICLELLTQPLSLDCGHSFCQACLTANHKKSMLDKGESSCPVCRISYQPENIRPNRHVANIVEKLREVKLSPEGQKVDHCARHGEKLLLFCQEDGKVICWLCERSQEHRGHHTFLTEEVAREYQVKLQAALEMLRQKQQEAEELEADIREEKASWKTQIQYDKTNVLADFEQLRDILDWEESNELQNLEKEEEDILKSLTNSETEMVQQTQSLRELISDLEHRLQGSVMELLQGVDGVIKRTENVTLKKPETFPKNQRRVFRAPDLKGMLEVFRELTDVRRYWVDVTVAPNNISCAVISEDKRQVSSPKIIYGARGTRYQTFVNFNYCTGILGSQSITSGKHYWEVDVSKKTAWILGVCAGFQPDAMCNIEKNENYQPKYGYWVIGLEEGVKCSAFQDSSFHTPSVPFIVPLSVIICPDRVGVFLDYEACTVSFFNITNHGFLIYKFSHCSFSQPVFPYLNPRKCGVPMTLCSPSS [human TRIM5α, 2-codon deletion at 325]” registered an enrichment of 0.522 ± 0.026. Regarding “MASGILVNVKEEVTCPICLELLTQPLSLDCGHSFCQACLTANHKKSMLDKGESSCPVCRISYQPENIRPNRHVANIVEKLREVKLSPEGQKVDHCARHGEKLLLFCQEDGKVICWLCERSQEHRGHHTFLTEEVAREYQVKLQAALEMLRQKQQEAEELEADIREEKASWKTQIQYDKTNVLADFEQLRDILDWEESNELQNLEKEEEDILKSLTNSETEMVQQTQSLRELISDLEHRLQGSVMELLQGVDGVIKRTENVTLKKPETFPKNQRRVFRAPDLKGMLEVFRELTDVRRYWVDVTVAPNNISCAVISEDKRQVSSPKIYGARGTRYQTFVNFNYCTGILGSQSITSGKHYWEVDVSKKTAWILGVCAGFQPDAMCNIEKNENYQPKYGYWVIGLEEGVKCSAFQDSSFHTPSVPFIVPLSVIICPDRVGVFLDYEACTVSFFNITNHGFLIYKFSHCSFSQPVFPYLNPRKCGVPMTLCSPSS [human TRIM5α, 3-codon deletion at 325]”, the enrichment is 1.16 ± 0.9.

The sequence “MASGILVNVKEEVTCPICLELLTQPLSLDCGHSFCQACLTANHKKSMLDKGESSCPVCRISYQPENIRPNRHVANIVEKLREVKLSPEGQKVDHCARHGEKLLLFCQEDGKVICWLCERSQEHRGHHTFLTEEVAREYQVKLQAALEMLRQKQQEAEELEADIREEKASWKTQIQYDKTNVLADFEQLRDILDWEESNELQNLEKEEEDILKSLTNSETEMVQQTQSLRELISDLEHRLQGSVMELLQGVDGVIKRTENVTLKKPETFPKNQRRVFRAPDLKGMLEVFRELTDVRRYWVDVTVAPNNISCAVISEDKRQVSSPKKPQIIYGARGTRYQTFVNFNYCTGILGSQSITSGKHYWEVDVSKKTAWILGVCAGFQPDAMCNIEKNENYQPKYGYWVIGLEEGVKCSAFQDSSFHTPSVPFIVPLSVIICPDRVGVFLDYEACTVSFFNITNHGFLIYKFSHCSFSQPVFPYLNPRKCGVPMTLCSPSS [human TRIM5α, 1-codon duplication at 324]” showed an enrichment of 0.523 ± 0.39. The same measure for “MASGILVNVKEEVTCPICLELLTQPLSLDCGHSFCQACLTANHKKSMLDKGESSCPVCRISYQPENIRPNRHVANIVEKLREVKLSPEGQKVDHCARHGEKLLLFCQEDGKVICWLCERSQEHRGHHTFLTEEVAREYQVKLQAALEMLRQKQQEAEELEADIREEKASWKTQIQYDKTNVLADFEQLRDILDWEESNELQNLEKEEEDILKSLTNSETEMVQQTQSLRELISDLEHRLQGSVMELLQGVDGVIKRTENVTLKKPETFPKNQRRVFRAPDLKGMLEVFRELTDVRRYWVDVTVAPNNISCAVISEDKRQVSSPKPARGTRYQTFVNFNYCTGILGSQSITSGKHYWEVDVSKKTAWILGVCAGFQPDAMCNIEKNENYQPKYGYWVIGLEEGVKCSAFQDSSFHTPSVPFIVPLSVIICPDRVGVFLDYEACTVSFFNITNHGFLIYKFSHCSFSQPVFPYLNPRKCGVPMTLCSPSS [human TRIM5α, 5-codon deletion at 326]”: 1.07 ± 0.19; for “MASGILVNVKEEVTCPICLELLTQPLSLDCGHSFCQACLTANHKKSMLDKGESSCPVCRISYQPENIRPNRHVANIVEKLREVKLSPEGQKVDHCARHGEKLLLFCQEDGKVICWLCERSQEHRGHHTFLTEEVAREYQVKLQAALEMLRQKQQEAEELEADIREEKASWKTQIQYDKTNVLADFEQLRDILDWEESNELQNLEKEEEDILKSLTNSETEMVQQTQSLRELISDLEHRLQGSVMELLQGVDGVIKRTENVTLKKPETFPKNQRRVFRAPDLKGMLEVFRELTDVRRYWVDVTVAPNNISCAVISEDKRQVSSPKPGARGTRYQTFVNFNYCTGILGSQSITSGKHYWEVDVSKKTAWILGVCAGFQPDAMCNIEKNENYQPKYGYWVIGLEEGVKCSAFQDSSFHTPSVPFIVPLSVIICPDRVGVFLDYEACTVSFFNITNHGFLIYKFSHCSFSQPVFPYLNPRKCGVPMTLCSPSS [human TRIM5α, 4-codon deletion at 326]”: 0.615 ± 0.024. Take “MASGILVNVKEEVTCPICLELLTQPLSLDCGHSFCQACLTANHKKSMLDKGESSCPVCRISYQPENIRPNRHVANIVEKLREVKLSPEGQKVDHCARHGEKLLLFCQEDGKVICWLCERSQEHRGHHTFLTEEVAREYQVKLQAALEMLRQKQQEAEELEADIREEKASWKTQIQYDKTNVLADFEQLRDILDWEESNELQNLEKEEEDILKSLTNSETEMVQQTQSLRELISDLEHRLQGSVMELLQGVDGVIKRTENVTLKKPETFPKNQRRVFRAPDLKGMLEVFRELTDVRRYWVDVTVAPNNISCAVISEDKRQVSSPKPGTRYQTFVNFNYCTGILGSQSITSGKHYWEVDVSKKTAWILGVCAGFQPDAMCNIEKNENYQPKYGYWVIGLEEGVKCSAFQDSSFHTPSVPFIVPLSVIICPDRVGVFLDYEACTVSFFNITNHGFLIYKFSHCSFSQPVFPYLNPRKCGVPMTLCSPSS [human TRIM5α, 7-codon deletion at 326]”: the enrichment came to 1.46 ± 0.23. Turning to “MASGILVNVKEEVTCPICLELLTQPLSLDCGHSFCQACLTANHKKSMLDKGESSCPVCRISYQPENIRPNRHVANIVEKLREVKLSPEGQKVDHCARHGEKLLLFCQEDGKVICWLCERSQEHRGHHTFLTEEVAREYQVKLQAALEMLRQKQQEAEELEADIREEKASWKTQIQYDKTNVLADFEQLRDILDWEESNELQNLEKEEEDILKSLTNSETEMVQQTQSLRELISDLEHRLQGSVMELLQGVDGVIKRTENVTLKKPETFPKNQRRVFRAPDLKGMLEVFRELTDVRRYWVDVTVAPNNISCAVISEDKRQVSSPKPIIYGARGTRYQTFVNFNYCTGILGSQSITSGKHYWEVDVSKKTAWILGVCAGFQPDAMCNIEKNENYQPKYGYWVIGLEEGVKCSAFQDSSFHTPSVPFIVPLSVIICPDRVGVFLDYEACTVSFFNITNHGFLIYKFSHCSFSQPVFPYLNPRKCGVPMTLCSPSS [human TRIM5α, 1-codon deletion at 326]”, the enrichment was 0.584 ± 0.022. The same measure for “MASGILVNVKEEVTCPICLELLTQPLSLDCGHSFCQACLTANHKKSMLDKGESSCPVCRISYQPENIRPNRHVANIVEKLREVKLSPEGQKVDHCARHGEKLLLFCQEDGKVICWLCERSQEHRGHHTFLTEEVAREYQVKLQAALEMLRQKQQEAEELEADIREEKASWKTQIQYDKTNVLADFEQLRDILDWEESNELQNLEKEEEDILKSLTNSETEMVQQTQSLRELISDLEHRLQGSVMELLQGVDGVIKRTENVTLKKPETFPKNQRRVFRAPDLKGMLEVFRELTDVRRYWVDVTVAPNNISCAVISEDKRQVSSPKPIYGARGTRYQTFVNFNYCTGILGSQSITSGKHYWEVDVSKKTAWILGVCAGFQPDAMCNIEKNENYQPKYGYWVIGLEEGVKCSAFQDSSFHTPSVPFIVPLSVIICPDRVGVFLDYEACTVSFFNITNHGFLIYKFSHCSFSQPVFPYLNPRKCGVPMTLCSPSS [human TRIM5α, 2-codon deletion at 326]”: 0.406 ± 0.32; for “MASGILVNVKEEVTCPICLELLTQPLSLDCGHSFCQACLTANHKKSMLDKGESSCPVCRISYQPENIRPNRHVANIVEKLREVKLSPEGQKVDHCARHGEKLLLFCQEDGKVICWLCERSQEHRGHHTFLTEEVAREYQVKLQAALEMLRQKQQEAEELEADIREEKASWKTQIQYDKTNVLADFEQLRDILDWEESNELQNLEKEEEDILKSLTNSETEMVQQTQSLRELISDLEHRLQGSVMELLQGVDGVIKRTENVTLKKPETFPKNQRRVFRAPDLKGMLEVFRELTDVRRYWVDVTVAPNNISCAVISEDKRQVSSPKPPQIIYGARGTRYQTFVNFNYCTGILGSQSITSGKHYWEVDVSKKTAWILGVCAGFQPDAMCNIEKNENYQPKYGYWVIGLEEGVKCSAFQDSSFHTPSVPFIVPLSVIICPDRVGVFLDYEACTVSFFNITNHGFLIYKFSHCSFSQPVFPYLNPRKCGVPMTLCSPSS [human TRIM5α, 1-codon duplication at 325]”: 2.04 ± 2.7; for “MASGILVNVKEEVTCPICLELLTQPLSLDCGHSFCQACLTANHKKSMLDKGESSCPVCRISYQPENIRPNRHVANIVEKLREVKLSPEGQKVDHCARHGEKLLLFCQEDGKVICWLCERSQEHRGHHTFLTEEVAREYQVKLQAALEMLRQKQQEAEELEADIREEKASWKTQIQYDKTNVLADFEQLRDILDWEESNELQNLEKEEEDILKSLTNSETEMVQQTQSLRELISDLEHRLQGSVMELLQGVDGVIKRTENVTLKKPETFPKNQRRVFRAPDLKGMLEVFRELTDVRRYWVDVTVAPNNISCAVISEDKRQVSSPKPQARGTRYQTFVNFNYCTGILGSQSITSGKHYWEVDVSKKTAWILGVCAGFQPDAMCNIEKNENYQPKYGYWVIGLEEGVKCSAFQDSSFHTPSVPFIVPLSVIICPDRVGVFLDYEACTVSFFNITNHGFLIYKFSHCSFSQPVFPYLNPRKCGVPMTLCSPSS [human TRIM5α, 4-codon deletion at 327]”: 1.02 ± 0.48.

Regarding “MASGILVNVKEEVTCPICLELLTQPLSLDCGHSFCQACLTANHKKSMLDKGESSCPVCRISYQPENIRPNRHVANIVEKLREVKLSPEGQKVDHCARHGEKLLLFCQEDGKVICWLCERSQEHRGHHTFLTEEVAREYQVKLQAALEMLRQKQQEAEELEADIREEKASWKTQIQYDKTNVLADFEQLRDILDWEESNELQNLEKEEEDILKSLTNSETEMVQQTQSLRELISDLEHRLQGSVMELLQGVDGVIKRTENVTLKKPETFPKNQRRVFRAPDLKGMLEVFRELTDVRRYWVDVTVAPNNISCAVISEDKRQVSSPKPQGARGTRYQTFVNFNYCTGILGSQSITSGKHYWEVDVSKKTAWILGVCAGFQPDAMCNIEKNENYQPKYGYWVIGLEEGVKCSAFQDSSFHTPSVPFIVPLSVIICPDRVGVFLDYEACTVSFFNITNHGFLIYKFSHCSFSQPVFPYLNPRKCGVPMTLCSPSS [human TRIM5α, 3-codon deletion at 327]”, the enrichment worked out at 0.571 ± 0.26. The same measure for “MASGILVNVKEEVTCPICLELLTQPLSLDCGHSFCQACLTANHKKSMLDKGESSCPVCRISYQPENIRPNRHVANIVEKLREVKLSPEGQKVDHCARHGEKLLLFCQEDGKVICWLCERSQEHRGHHTFLTEEVAREYQVKLQAALEMLRQKQQEAEELEADIREEKASWKTQIQYDKTNVLADFEQLRDILDWEESNELQNLEKEEEDILKSLTNSETEMVQQTQSLRELISDLEHRLQGSVMELLQGVDGVIKRTENVTLKKPETFPKNQRRVFRAPDLKGMLEVFRELTDVRRYWVDVTVAPNNISCAVISEDKRQVSSPKPQGTRYQTFVNFNYCTGILGSQSITSGKHYWEVDVSKKTAWILGVCAGFQPDAMCNIEKNENYQPKYGYWVIGLEEGVKCSAFQDSSFHTPSVPFIVPLSVIICPDRVGVFLDYEACTVSFFNITNHGFLIYKFSHCSFSQPVFPYLNPRKCGVPMTLCSPSS [human TRIM5α, 6-codon deletion at 327]”: 0.744 ± 0.079.

The values above are taken from the supplement of paper PMC12230231.
